# Reference: the supplement of paper PMC10126150
# Sequences with one replicate were seen in a single cluster, so their values are uncertain.
# Tested on: ATP
# Assay: switch fluorescence ratio, 500 uM ATP over buffer (Cy3 cluster intensity, sum of 5 cycles each) (fold (ratio)); higher = stronger signal-on switching upon ATP binding; sequences stand for … in TCGTCGGCAGCGTCAGATGTGTATAAGAGACAGTTTTTTTTTTTTTTTTTTTTTTTTT…TC
# Settings: aptamer strand: ATP DNA aptamer (quencher-CACCTGGGGGAGTATTGCGGAGGAAGG + anchor), 100 nM annealed; ATP concentration: 500 uM; one replicate
# Procedure, shortened: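 The fluorescence ratio divides summed target-cycle Cy3 intensity by summed buffer-cycle Cy3 intensity for each cluster and is averaged per switch-domain sequence. Cy3-labelled switching-strand clusters on a modified Illumina MiSeq flow-cell were annealed to 100 nM quencher-labelled ATP aptamer, then imaged in selection buffer and again after 15 min with 500 uM ATP at 22 °C. Five such cycles were run, with NaOH stripping and re-annealing between them, and clusters outside 100-1000 RFU were excluded.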
# 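Note: ATP exposure 15 min at 22 °C before imaging.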
row,Sequence,switch fluorescence ratio
1,CTCAAATTGC,1.37
2,TTCTTCGTCG,0.966
3,TAAACGTTGC,1.62
4,GTCGTGCCAG,0.969
5,ACTTAAACGA,1.08
6,TTTGAGGCTG,0.959
7,GCGTGCGGTG,0.98
8,AAAGCTAGTG,1.01
9,TGCCCACAGA,1.07
10,TGATAGATGG,1
11,TGGCTTGTTG,1.01
12,AAGGTCGACA,1.02
13,TGCACCGTAC,1.8
14,TGTTGTGAAC,1.04
15,AATCGTATAA,0.967
16,GCGTACTTGA,0.993
17,GATTATTA,1.01
18,CCAACCGATA,1.38
19,TGGGGTACTG,1.03
20,GTTAGCAGCT,1
21,TGTGTCATCT,0.97
22,TACACCTATC,1.05
23,AAATTATAGC,0.977

row,Sequence,switch fluorescence ratio
1,TCAAATATAT,1.29
2,GTGTTGGATT,1
3,TTGTCATCGG,0.978
4,ATTACCCTGG,1.05
5,CCGGCGGT,1.03
6,GACAGCCGAA,1.02
7,TAGCACTGAC,1.45
8,CTATTCCAAC,1.06
9,TTTCTTTCTG,0.959
10,CAGGCCAAGA,1.12
11,AATGGATGAA,1.02
12,AGAAGTAGGG,1
13,GTTGGAGGCC,0.986
14,TCGCGCATGT,1.13
15,CTCGGAAACT,1.04
16,GTCGGGATTG,0.998
17,TGTATAGATA,0.97
18,TTGAATTTTG,0.987
19,AGCCACTGGC,1.12
20,GCTAGTGTTT,1.01
21,TGAAAGATAT,1.18
22,GGTCAATTGG,0.99
23,CTTACAGGGC,1

row,Sequence,switch fluorescence ratio
1,GAGGATTTTA,0.983
2,TGAGGACGGG,1
3,GTATCTAGGA,0.996
4,ACCACGTTGT,0.99
5,ACTGGTTAAC,1.04
6,AGATTCGGCT,0.991
7,TACTAAATAG,1.03
8,CCATGAACCT,2.05
9,CGGAGCGCAT,3.08
10,TGTGCGTGTG,0.975
11,AGGCACGCCC,0.987
12,AAACCTAGCT,1.18
13,ACCTTGCGAA,1.26
14,CCAAAACGGA,1.01
15,ACTTCCGCAA,1.22
16,GGTGCTTAAA,1.02
17,TAAGTGCGAA,1
18,TGGGTTGAGC,0.961
19,ACAATCATT,1.01
20,ATTCCCAACG,1.02
21,GAAAGGATCG,0.985
22,CGCTCCGACT,1.1
23,ACCACGTGC,1.02

row,Sequence,switch fluorescence ratio
1,AGCGGTGTGG,1
2,GAAGCTGCGG,1.02
3,CAGAGTTCGC,1.01
4,GCCAAATTCC,1.06
5,TGCTTCGACA,0.98
6,GTGTCGAAGT,1.04
7,CCTTATGACA,0.982
8,CTGTTAAGGT,1.01
9,AGTCATGAAC,0.975
10,TTTAGCTAGA,1.05
11,GGTTGCCGCC,1.02
12,AAGGGTCCGA,1
13,TCAAGGGGCG,1.03
14,GCGGCAATTT,1.08
15,TAATTGTTTG,1.04
16,GGTCCATCTA,1
17,TAGCCGAGAG,0.999
18,AGGTCAAACT,1.01
19,AACGGAATTA,1.05
20,CTAATCCGAG,1.07
21,ATTAGAAACG,1.01
22,TAGCTTCTCA,1.03
23,AGGCGTACA,0.98

row,Sequence,switch fluorescence ratio
1,TCCGTGAG,2.69
2,CGTAAGGCGC,1.03
3,AACCCGTTCA,1.03
4,GTGACGTGAC,1.25
5,CCAAGTGACG,0.971
6,TCAACCTCCC,1.91
7,AGATTAAATC,0.996
8,ACGTCGTAGA,0.985
9,GATGGCCGTA,1.06
10,TCTAGGGACG,0.942
11,AGTTGCTCAT,0.999
12,ATACCGCTGT,1.13
13,CGGAAGTAGC,1.06
14,GTTTAGTGCG,0.959
15,TCGGCATATT,1.02
16,TCTTCAGATT,0.966
17,ACACCCGCCG,1.11
18,CTCTGACCCT,1.03
19,TCTGACAGGG,1.01
20,GGAGATTGAG,1.03
21,CAGCAAGTAG,2.05
22,AAACGCCGGT,0.963
23,ACTTCGTATC,1.24

row,Sequence,switch fluorescence ratio
1,CACAATCGTT,0.999
2,GGCTCCGGTA,1.36
3,ACATGCATGA,0.996
4,CCATTGCGTA,1.06
5,CCTAAGGGAC,1.07
6,TCGTAGAAGA,0.979
7,ATCCTCAGCG,1.51
8,ACACCTCATT,1.03
9,AGGGGGATA,1.03
10,GGCGGAGGTT,0.964
11,TCGGAACTGC,0.962
12,GTACTAATAG,1.05
13,GCTACTATAG,1
14,CCTCCTATTT,1.44
15,ACAGGTCGCC,1.02
16,GTGTGCGTGG,0.989
17,ATATTCGCTT,1.03
18,AGTCTCAGG,1.04
19,CCAATTTAAC,1.36
20,GGTGGAGATT,1.02
21,GTCTGATTCT,0.995
22,GATTTTGGT,0.94
23,CTGGTCACGA,0.997

row,Sequence,switch fluorescence ratio
1,ATGTAGCGGC,1.12
2,ACGAGTAGAT,1.05
3,TCGGGATTCT,1.1
4,ACCCGCACCG,1.32
5,AATCGCATTT,1.05
6,CTGTTGAAAC,2.26
7,GCTGTGATAC,5.3
8,CCCGGTCCCA,1.02
9,TATCCCAACG,1.03
10,TTCTTTAGAT,1.04
11,TAGATTTG,0.98
12,CTAGACTGAT,1.02
13,ACTACACGCC,1.32
14,AGTGAATACG,0.982
15,GTTTCTTGCA,0.997
16,TAGTTCCACC,1.06
17,TGGATCACAC,1.01
18,AGATTGTAGC,1.02
19,TTAAGTTACT,1.04
